Test results published in the supplement of paper PMC7266297.
The list shows a part of the results. Single values are uncertain, as repeats are few or missing.

What was measured:
[1] = tested on: KB-3-1; test: growth inhibition relative to DMSO control (SRB); cervical cancer cells: KB-3-1 is the parent and KB-V1 overexpresses MDR1; SRB is the sulforhodamine B stain; higher = more growth inhibition; details: 1 µM; 72 h
[2] = tested on: KB-V1; test: as above; details: 1 µM; 72 h
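Note: Read-out is SRB optical density at 490 nm, with the control being wells given 0.5% DMSO vehicle, and compound added one day after cells were plated.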

Q: What does the source list for `Cc1ccc(NC(=O)C2(c3ccc4c(c3)OC(F)(F)O4)CC2)nc1-c1cccc(C(=O)O)c1` [VX-809 (Lumacaftor)]?
A: growth inhibition [1]: 26.5%; growth inhibition [2]: 11%

Q: With `O=C(Nc1c(Cl)cncc1Cl)c1ccc(OC(F)F)c(OCC2CC2)c1` [Roflumilast] as the compound, how does the growth inhibition [1] read?
A: < 0%

Q: What about the growth inhibition [2] of the same compound?
A: 17.8%

Q: For `Oc1cccc(-c2nc(N3CCOCC3)c3oc4ncccc4c3n2)c1`, which growth inhibition [1] is on record?
A: 92.9%

Q: What about the growth inhibition [2] of the same compound?
A: 88.3%

Q: `CCCc1nc2c(C)cc(-c3nc4ccccc4n3C)cc2n1Cc1ccc(-c2ccccc2C(=O)O)cc1` [Telmisartan] was tested. Which growth inhibition [1] did it give?
A: 43.6%

Q: What about the growth inhibition [2] of the same compound?
A: 19.9%
